# Test results: PubChem BioAssay AID1030 (National Center for Advancing Translational Sciences (NCATS), 2008)
# Among all 220,000 compounds or so, about 16,000 (7.3%) were called active. Inconclusive means that the source gave no clear call. Such entries were picked first, then a sample of the others. Calls come from the whole dose curve; as a rule, active = well fitted inhibition curve with a large enough effect (not every such curve was filed as active); inconclusive = small, poorly fitted or top-dose-only effect, or another doubt; inactive = no such curve, though single readings can be large or run the other way. No potency is given beside an inconclusive call; the fits are too rough.
# Biological target: Aldehyde dehydrogenase 1A1 (Homo sapiens) (UniProt P00352)
# UniProt P00352, sequence (P00352 whole entry, looked up): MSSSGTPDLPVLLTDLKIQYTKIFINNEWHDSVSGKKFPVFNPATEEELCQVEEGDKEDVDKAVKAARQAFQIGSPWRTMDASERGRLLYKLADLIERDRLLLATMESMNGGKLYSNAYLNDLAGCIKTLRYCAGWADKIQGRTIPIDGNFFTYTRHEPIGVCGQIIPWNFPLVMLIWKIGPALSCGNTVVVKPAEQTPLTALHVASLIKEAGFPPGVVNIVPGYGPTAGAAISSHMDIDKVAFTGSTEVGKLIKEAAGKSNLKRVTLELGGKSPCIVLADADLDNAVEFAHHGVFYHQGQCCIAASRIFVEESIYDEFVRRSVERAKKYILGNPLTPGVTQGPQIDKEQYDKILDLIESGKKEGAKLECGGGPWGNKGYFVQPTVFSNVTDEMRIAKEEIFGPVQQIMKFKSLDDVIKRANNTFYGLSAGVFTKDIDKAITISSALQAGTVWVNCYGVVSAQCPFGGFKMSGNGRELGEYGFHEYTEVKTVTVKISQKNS
# Test: qHTS Assay for Inhibitors of Aldehyde Dehydrogenase 1 (ALDH1A1);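 for activity, negative = inhibition: plate controls were no enzyme wells and a reference inhibitor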
# Conditions: Purified ALDH1A1, NADH fluorescence, propionaldehyde substrate; series mostly up to 75.3 µM; activity, negative = inhibition: at the top concentration
# Potency is the fitted concentration of half-maximal effect; tags give direction and shape of the fitted curve.
SMILES,Potency,"activity, negative = inhibition"
Cc1cc2c3c(c1)C1(SCC(=O)N1c1ccc(F)cc1)C(=O)N3C(C)(C)CC2C (stereo not given),"inconclusive [inhibitor, single point]",–
Cc1ccc(C(=O)Nc2sc3c(c2C(=O)O)CCCCC3)o1,active: 18.9 µM,–
CCOC(=O)c1ccc(N2C(=O)CC(N3CCCC(C)C3)C2=O)cc1 (stereo not given),active: 3.16 µM,–
CCCCOc1ccc(N=Cc2cccs2)cc1,"inconclusive [inhibitor, single point]",–
Clc1ccccn1,–,inactive: -7.66%
COc1ccc(C(C)=O)cc1CSc1nc(C)cc(C)n1,"inconclusive [inhibitor, single point]",–
CCc1ccc(NC(=O)c2cc(-c3ccco3)on2)cc1,"inconclusive [inhibitor, single point]",–
O=C(NCc1cccnc1)C1c2ccccc2C(=O)N1C1CCCC1 (stereo not given),–,inactive: -6.3%
Cc1ccc(S(=O)(=O)Nc2ccc3c(c2)OCCO3)cc1C,"inconclusive [inhibitor, single point]",–
COCCCNC(=O)CN(c1cc([N+](=O)[O-])ccc1OC)S(C)(=O)=O,–,inactive: 4.21%
CN1CCc2nc(NC(=O)COc3ccc(C#N)cc3)sc2C1,–,inactive: 7.8%
COc1cccc(/C(O)=C2/C(=O)C(=O)N(CCN(C)C)C2c2ccccn2)c1 (stereo not given),"inconclusive [inhibitor, single point]",–
N/C(CN1CCCC1=O)=N\O,–,inactive: 8.47%
Cc1ccc(-c2nc(P(=O)(c3ccccc3)c3ccccc3)c(N3CCOCC3)o2)cc1,"inconclusive [inhibitor, single point]",–
CCn1ncc(NC(=S)Nc2ccc(OC)c(OC)c2)c1C(N)=O,"inconclusive [inhibitor, single point]",–
CCOC(=O)C[N+](CC)(CC)CC#Cc1ccccc1,–,inactive: 10.8%
O=C(NC(=S)Nc1cc(Cl)ccc1O)c1cccc(Br)c1,active: 9.46 µM,–
CC(=O)c1ccc(NC(=O)C2CCCN(C(=O)c3ccc(Cl)cc3)C2)cc1 (stereo not given),"inconclusive [inhibitor, single point]",–
CCOC(=O)C(CC)n1cnc2c(oc3ccccc32)c1=O (stereo not given),"inconclusive [inhibitor, partial curve, poor fit]",–
COc1ccc(-n2c(NC(=O)c3ccc(Br)o3)c(C#N)c3nc4ccccc4nc32)cc1,"inconclusive [inhibitor, partial curve]",–
O=C(CCC1CCCC1)NCc1cccs1,–,inactive: -11.5%
Nc1nc2nccc(-c3ccccn3)n2n1,"inconclusive [inhibitor, single point]",–
COc1cc(/C=C(\C#N)c2nc3ccccc3[nH]2)cc(Br)c1OCc1ccc(F)cc1,"inconclusive [inhibitor, single point]",–
Cc1ccc(OCCNC(=O)C2CC(=O)N(c3ccc(C)cc3)C2)cc1 (stereo not given),"inconclusive [inhibitor, partial curve]",–
CN(C)C(=O)c1ccc(-c2nccc(NCc3ccccc3)n2)cc1,"inconclusive [inhibitor, single point]",–

SMILES,Potency,"activity, negative = inhibition"
O=C(Nc1ccc2c(c1)OCO2)Nc1ccccn1,–,inactive: -7.32%
Cc1cc(-c2ccccc2)c(C#N)c(=S)[nH]1,active: 7.94 µM,–
COC(=O)c1cc(Cl)c(NC(=O)c2ccc(F)cc2)cc1OC,"inconclusive [inhibitor, partial curve]",–
Clc1ccc(SCCCCN2CCNCC2)cc1,–,inactive: -3.39%
Cc1ccc(OCC(=O)NNC(=O)C2CCN(c3ncccn3)CC2)cc1,"inconclusive [inhibitor, single point]",–
N/N=C(\c1ccccc1)C12CN3CN(CN(C3)C1)C2,–,inactive: 0.646%
COC(=O)c1ccc(C(=O)OC)c(NC(=O)CCc2ccc(C)o2)c1,"inconclusive [inhibitor, partial curve]",–
COC1CCN(C(=O)CC2C(=O)NCCN2CC(C)(C)C)CC1 (stereo not given),"inconclusive [inhibitor, partial curve]",–
O=C(Nc1cccc2c1C(=O)NC2=O)c1cccc(N2C(=O)CCC2=O)c1,"inconclusive [inhibitor, single point]",–
C=CCn1c(-c2ccc(Cl)cc2)ccc(C#N)c1=O,"inconclusive [inhibitor, single point]",–
Fc1ccc(-n2nnc(-c3cnc4ccccc4c3)n2)cc1,–,inactive: 5.4%
O=C(/C=C/c1ccccc1)Nc1ccc2c(c1)C(=O)NC2=O,"inconclusive [inhibitor, single point]",–
COc1ccccc1NC(=O)N(Cc1cc2cc(OC)c(OC)cc2[nH]c1=O)CC1CCCO1 (stereo not given),"inconclusive [inhibitor, partial curve]",–
O=C(CN(C1CCCCC1)S(=O)(=O)c1ccc(Br)cc1)NCc1ccncc1,–,inactive: -1.87%
COc1ccc(-c2nc(-c3ccccc3)c(-c3cc([N+](=O)[O-])ccc3C)[nH]2)cc1OC,–,inactive: -6.86%
C[C@](N)(C(=O)O)c1ccc(-c2nn[nH]n2)cc1,active: 15.8 µM,–
CC(C)(C)n1cnc2cc(NS(=O)(=O)c3ccccc3)ccc21,–,inactive: -0.867%
CN1/C(=C\C=C(/C#N)C(=O)Nc2ccccc2F)C(C)(C)c2ccccc21,–,inactive: -4.92%
COc1ccccc1CNC(=O)c1n[nH]c2ccccc12,"inconclusive [inhibitor, single point]",–
O=C(COc1ccc2c(c1)C(=O)CC1(CCCCC1)O2)NCc1ccccc1,"inconclusive [inhibitor, partial curve]",–
NCCc1nnc(SCc2c(F)cccc2Cl)o1,"inconclusive [inhibitor, single point]",–
CSc1ccc(S(=O)(=O)NCc2ccccc2)cc1,"inconclusive [inhibitor, single point]",–
COc1cnn(-c2cc(Oc3ccc(C)cc3)ncn2)c(=O)c1Cl,active: 12.6 µM,–
CC1CCCN(C(=O)CSc2nc3ccccc3o2)C1 (stereo not given),–,inactive: -3.98%
c1ccc(-c2ccnc3nc(-n4cccc4)nn23)cc1,"inconclusive [inhibitor, single point]",–

SMILES,Potency,"activity, negative = inhibition"
Cn1c(=O)c2c(SCCN3CCOCC3)nc(C3CCCC3)nc2n(C)c1=O,"inconclusive [inhibitor, single point]",–
OCC1OC(c2ccc3c(c2)OCO3)C=CC1Oc1cc(Cl)cc(Cl)c1 (stereo not given),"inconclusive [inhibitor, single point]",–
CCc1nnc(NC(=O)CCC(=O)N2CCN(c3ccccn3)CC2)s1,"inconclusive [inhibitor, single point]",–
CCCOc1ccccc1C1C(C(=O)OC)=CN(C(C)C)C=C1C(=O)OC,"inconclusive [inhibitor, partial curve]",–
CN(C)S(=O)(=O)c1ccc(/C(O)=C2/C(=O)C(=O)N(Cc3cccnc3)C2c2cccs2)cc1 (stereo not given),"inconclusive [inhibitor, single point]",–
Cc1nc2c(-c3ccc(Cl)cc3)cnn2c2c1CCC2,"inconclusive [inhibitor, partial curve]",–
CC(=O)N1CCC2(CC1)CC(=O)c1cc(OCC(=O)N3CCOCC3)ccc1O2,"inconclusive [inhibitor, partial curve]",–
NS(=O)(=O)c1cccc(NC(=O)COC(=O)C2CCCCC2)c1,–,inactive: -3.84%
CCOC(=O)c1sc(=S)n(-c2ccc(C)cc2)c1N,active: 14.1 µM,–
Nc1cc(N)nc(SCC(=O)NNC(=O)c2ccc(Cl)cc2)n1,"inconclusive [inhibitor, single point]",–
CC(=O)Nc1ccccc1NC(=O)C/C(C)=N/NC(=O)c1ccncc1,–,inactive: 2.59%
CC1CCN(C(=O)c2ccc(NC(=O)C3CCCO3)cc2)CC1 (stereo not given),"inconclusive [inhibitor, single point]",–
COCCCn1c(SCC(=O)n2c(C)c(C)c3ccccc32)nnc1-c1ccoc1C,active: 25.1 µM,–
S=C1NCN(C2CCCCC2)CN1c1ccccc1,–,inactive: 15.9%
NC(=O)N=Nc1c(O)[nH]c2c(Br)cc(Br)cc12,"inconclusive [inhibitor, single point]",–
CS(=O)(=O)c1ccc2nnn(OCC(=O)Nc3ccc(Br)cc3Br)c2c1,"inconclusive [inhibitor, single point]",–
CCCCn1c(=O)c(F)cn(Cc2ccc(OC)c([N+](=O)[O-])c2)c1=O,"inconclusive [inhibitor, single point]",–
CC1=C(C(=O)OC(C)C)C(c2cccc(F)c2)N2C(=O)C(C)SC2=N1 (stereo not given),"inconclusive [inhibitor, full curve]",–
COc1cc(/C=C(\C#N)C(=O)NCC2CCCO2)ccc1OC(C)C (stereo not given),"inconclusive [inhibitor, partial curve]",–
O=C(COC(=O)c1cnc(Cl)c(Cl)c1)NCc1ccc2c(c1)OCO2,active: 2.24 µM,–
CCCCn1c(O)c(N=NC(=O)c2ccccc2NS(=O)(=O)c2cccs2)c2ccccc21,active: 11.2 µM,–
COc1cccc(-c2ccc(C#N)c(SCC(=O)NCCc3ccccc3)n2)c1,"inconclusive [inhibitor, single point]",–
O=C(CSc1nnnn1-c1ccccc1F)Nc1nc2ccccc2s1,"inconclusive [inhibitor, full curve]",–
Cn1cc(-c2nc3cncnc3n(C3CC3)c2=O)c2ccccc21,–,inactive: 14.9%
COc1ccc2c(c1)CCc1c(C(=O)NCc3ccc(Cl)cc3)noc1-2,active: 12.6 µM,–
